# Out of some 370,000 compounds screened, about 1,100 (0.3%) were called active. The inconclusive results got no clear call from the source; some entries with a clear call stand among them for comparison. Calls follow the shape of the dose curve; as a rule, active = well fitted activation curve with a large enough effect; inconclusive = small, poorly fitted or top-dose-only effect; inactive = flat fitted curve, though single readings scatter. Potencies of inconclusive entries are doubtful fits and often do not repeat.
# Biological target: Relaxin receptor 1 (Homo sapiens) (UniProt Q9HBX9)
# Sequence of UniProt Q9HBX9 (Q9HBX9 whole entry, looked up): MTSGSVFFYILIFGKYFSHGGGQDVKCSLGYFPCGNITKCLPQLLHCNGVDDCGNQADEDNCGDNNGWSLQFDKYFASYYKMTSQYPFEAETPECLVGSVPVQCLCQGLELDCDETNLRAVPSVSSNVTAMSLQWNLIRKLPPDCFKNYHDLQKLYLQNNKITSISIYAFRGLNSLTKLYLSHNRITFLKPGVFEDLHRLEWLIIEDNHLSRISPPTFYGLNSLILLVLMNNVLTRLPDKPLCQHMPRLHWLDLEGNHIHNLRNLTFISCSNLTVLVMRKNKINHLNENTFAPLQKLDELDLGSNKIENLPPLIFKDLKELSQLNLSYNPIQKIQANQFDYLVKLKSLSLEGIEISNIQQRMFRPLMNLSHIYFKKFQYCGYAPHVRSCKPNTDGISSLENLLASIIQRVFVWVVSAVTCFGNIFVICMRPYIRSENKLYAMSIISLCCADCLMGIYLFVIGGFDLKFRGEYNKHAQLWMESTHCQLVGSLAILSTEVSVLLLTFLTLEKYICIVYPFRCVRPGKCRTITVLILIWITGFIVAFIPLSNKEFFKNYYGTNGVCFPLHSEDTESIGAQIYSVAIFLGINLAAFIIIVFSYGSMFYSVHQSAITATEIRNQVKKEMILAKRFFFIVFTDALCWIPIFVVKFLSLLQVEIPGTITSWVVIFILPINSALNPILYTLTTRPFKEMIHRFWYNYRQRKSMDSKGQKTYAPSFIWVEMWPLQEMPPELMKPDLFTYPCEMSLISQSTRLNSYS
# Test: qHTS Assay for Agonists of the Relaxin Receptor RXFP1; also: nearly all actives have a fitted effect of over 60% in size
# Details: HEK293T-RXFP1 cAMP TR-FRET, 30 min; series mostly up to 57.5 µM
# In short: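 HEK293T cells stably expressing RXFP1 were pretreated with the PDE4 inhibitor Ro 20174, exposed to compounds for 30 min at 37C, lysed, and cAMP was read by TR-FRET. Data normalized to buffer (basal) and 29 nM porcine relaxin (100%).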
# Potency is read from the fitted curve at half-maximal effect; tags tell the direction and shape of the fitted curve.
row,SMILES,Potency
1,CCOC(=O)Cc1nc2ccccc2n(CC#N)c1=O,"inconclusive: 39.8 µM [activator, single point]"
2,CCOc1ccc(Sc2cc(C(=O)NC(C)c3ccccc3)c3ccccc3n2)cc1 (stereo not drawn),"inconclusive: 39.8 µM [activator, single point]"
3,CCOc1ccccc1C(=O)Nc1ccc(S(=O)(=O)Nc2nc(C)cc(C)n2)cc1,"inconclusive: 28.2 µM [activator, partial curve]"
4,CCN1CCN(c2nc3c(S(=O)(=O)c4ccc(Br)cc4)nnn3c3ccsc23)CC1,"inconclusive: 3.16 µM [activator, partial curve]"
5,O=C(Cn1c(=O)c2cccn2c2ccccc21)NCCc1ccccc1,"inconclusive: 31.6 µM [activator, single point]"
6,O=C(Cc1sc(-c2ccccc2Cl)nc1-c1ccccc1)Nc1ccccc1,"inconclusive: 39.8 µM [activator, single point]"
7,COc1ccc(N=C2O/C(=C/c3sc(=S)n(CC4CCCO4)c3O)N=C2C#N)cc1 (stereo not drawn),inactive
8,CCCCNC(=O)c1cccc(-n2c(C)nc3cccnc32)c1,"inconclusive: 22.4 µM [activator, partial curve]"
9,CC(NC(=O)C1CCN(c2nc3ccccc3nc2C(F)(F)F)CC1)c1ccccc1 (stereo not drawn),"inconclusive: 39.8 µM [activator, single point]"
10,CC(C)Nc1nc(-c2ccncc2)nc(-c2ccccc2)c1C#N,"inconclusive: 39.8 µM [activator, single point]"
11,O=c1sc(N2CCN(c3ccc(F)cc3)CC2)nc2ccsc12,"inconclusive: 28.2 µM [activator, single point]"
12,Cc1cccc(NC(=O)CSc2ncnc3c2oc2ccccc23)c1,"inconclusive: 39.8 µM [activator, single point]"
13,CCOC(=O)c1ccc(NC2SC(=O)N(Cc3cccc(C(=O)O)c3)C2=O)cc1 (stereo not drawn),inactive
14,CCCc1cc(=O)oc2c(C)c(OCC(=O)Nc3ccccn3)ccc12,"inconclusive: 31.6 µM [activator, single point]"
15,COc1cccc2c(=S)c(CCC(C)=O)c(C)[nH]c12,"inconclusive: 28.2 µM [activator, partial curve]"
16,NS(=O)(=O)c1ccc2nc(NC(=O)c3ccc4ncsc4c3)sc2c1,"inconclusive: 39.8 µM [activator, single point]"
17,CCc1ccc(C2c3c(oc4ccc(F)cc4c3=O)C(=O)N2c2nc(C)c(C(=O)OC)s2)cc1 (stereo not drawn),"inconclusive: 39.8 µM [activator, single point]"
18,CC(C)Oc1ccc(S(=O)(=O)N2CCOCC2)cc1NC(=O)c1cc([N+](=O)[O-])ccc1N1CCOCC1,"inconclusive: 17.8 µM [activator, partial curve]"

# — PubChem BioAssay AID2676 (National Center for Advancing Translational Sciences (NCATS), 2010)
